Source: PubChem BioAssay AID1159614 (National Center for Advancing Translational Sciences (NCATS), 2016)
The campaign covered roughly 45,000 compounds. About 65 (0.1%) were called active. The call rests on the fitted dose curve; in most records, active means well fitted activation curve with a large enough effect; inconclusive means small, poorly fitted or top-dose-only effect; inactive means no such curve, though single readings can be large or run the other way. Some of the results follow.

biological target: Galactocerebrosidase (Homo sapiens) (UniProt P54803); experiment: A Novel Cell-Based Assay to Identify Small Molecules for B -Galactocerebrosidase; details: 145M-Twi-hGALC-G270D cells (Twitcher mouse brain line with human GALC G270D), HMU-beta-Gal fluorescence, 48 h; series mostly up to 57.5 µM; activation: at the top concentration; further: 0% is about no effect; nearly all actives have a fitted effect of over 65% in size
Outline: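 Fluorogenic HMU-b-Gal hydrolysis (0.1 mM final, pH 5.2 citrate-phosphate with 1 mg/mL sodium taurocholate; carbonate stop buffer) measures mutant GALC activity after compound treatment of live 145M-Twi Twitcher brain cells stably carrying human GALC-G270D, with wild-type GALC line alongside; activation sought.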

Sequence of UniProt P54803 (P54803 whole entry, looked up): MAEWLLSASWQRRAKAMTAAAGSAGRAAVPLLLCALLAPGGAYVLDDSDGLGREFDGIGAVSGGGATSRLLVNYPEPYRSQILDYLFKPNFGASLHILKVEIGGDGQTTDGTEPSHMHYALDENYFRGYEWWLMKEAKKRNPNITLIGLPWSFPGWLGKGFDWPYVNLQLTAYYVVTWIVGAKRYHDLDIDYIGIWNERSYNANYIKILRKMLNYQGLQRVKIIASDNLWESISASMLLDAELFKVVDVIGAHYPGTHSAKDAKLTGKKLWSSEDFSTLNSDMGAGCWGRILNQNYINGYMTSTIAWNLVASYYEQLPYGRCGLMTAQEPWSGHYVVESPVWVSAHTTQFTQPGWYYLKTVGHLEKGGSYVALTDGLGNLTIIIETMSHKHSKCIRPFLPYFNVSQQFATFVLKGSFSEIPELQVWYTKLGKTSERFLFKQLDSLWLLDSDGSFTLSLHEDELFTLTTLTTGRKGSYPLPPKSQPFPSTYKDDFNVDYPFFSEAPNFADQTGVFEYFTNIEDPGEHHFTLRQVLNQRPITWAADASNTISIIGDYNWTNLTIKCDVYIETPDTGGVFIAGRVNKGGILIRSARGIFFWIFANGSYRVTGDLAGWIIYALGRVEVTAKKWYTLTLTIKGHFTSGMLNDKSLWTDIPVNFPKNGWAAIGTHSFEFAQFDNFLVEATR

activation, inactive:
COc1ccc(CNC(=O)c2cc3cc(S(=O)(=O)N4CCCCC4)ccc3n2C)c(OC)c1 -10.2%
Cc1c(Cl)cccc1N1C(N)=C(C#N)C(c2cc(CN3CCOCC3)cs2)C2=C1CCCC2=O (configuration not stated) -2.76%
COc1ccc(NC(=O)CSc2nc(-c3cccs3)cc(C(F)(F)F)c2C#N)cc1 -15%
O=c1c2sc3ccccc3c2n(Cc2cccc(C(F)(F)F)c2)c(=O)n1Cc1ccccc1 -6.98%
CCOC(=O)N1CCc2c(sc(NCc3ccc(N(C)C)cc3)c2C(=O)Nc2ccc(OC)cc2)C1 -11.1%
CC1CCc2c(sc(NC(=O)c3ccc(Cl)cc3Cl)c2C#N)C1 (configuration not stated) -13.5%
COCCNC(=O)CCc1c(C)nc2c(c(C)nn2-c2ccc(C)cc2)c1C -14.5%
COc1ccc(CNC(=O)c2ccc3c(c2)N(Cc2ccccc2F)C(=O)c2ccccc2S3(=O)=O)cc1 -6.73%
CCOc1ccc(NC(=O)c2c(NCc3sccc3C)sc3c2CCCCC3)cc1 -22.9%
N#Cc1c(C(F)(F)F)cc(-c2cccs2)nc1SCC(=O)Nc1ccc(F)cc1 -16.3%
Cc1cc(F)ccc1NC(=O)CN(C)S(=O)(=O)c1ccc(C(=O)N2CCOCC2)s1 -15.9%
CCN(CC)C(=O)CSc1nc2cc3c(cc2c(=O)n1CCCCCC(=O)NCCc1ccc(OC)c(OC)c1)OCO3 -9.18%
CCc1ccccc1NC(=O)CSC1=Nc2ccccc2C2=NC(Cc3ccccc3)C(=O)N12 (configuration not stated) -26.9%
O=C(CSc1nc2c([nH]c3ccccc32)c(=O)n1-c1ccc(F)cc1)NC1CCCCC1 6.91%
COc1ccc(OCc2ccc(-c3nc(C#N)c(N4CCN(c5cccc(Cl)c5)CC4)o3)o2)cc1 -16.5%
O=C(COc1ccc([N+](=O)[O-])cc1)Nc1cccc2cccnc12 -15.6%
CCCN(CCC)c1nc(-c2ccccc2F)nc2ccccc12 -12.8%
COc1ccc(-c2nc(SCC(=O)c3ccc(OC)c(Br)c3)n[nH]2)cc1 -6.61%
CCC(C(=O)OC)n1cnc2c(cnn2-c2ccc(F)cc2)c1=O (configuration not stated) -15.8%
O=c1[nH]c2ccccc2c(=O)n1CCCl -13.2%
COc1cc(NC(=O)C2CCCN(S(=O)(=O)c3ccc4c(c3)CCCC(=O)N4)C2)cc(OC)c1 (configuration not stated) -19.6%
COc1cc(Cl)c(C)cc1NC(=O)Cn1ncc2c(=O)oc3ccccc3c21 -10.9%
CCOc1cccc(C2c3[nH]c4ccccc4c3CCN2C(=O)CCC2CCCC2)c1 (configuration not stated) -1.63%
CCc1cccc(NC(=O)C2CCC(CNS(=O)(=O)c3csc(C(N)=O)c3)CC2)c1 (configuration not stated) -9.05%
CSc1ncc(Cl)c(C(=O)Nc2ccc(S(=O)(=O)N3CCCC(C)C3)cc2)n1 (configuration not stated) -13.1%
CCC(Sc1nc2nccnc2c(=O)n1Cc1ccc(F)cc1)C(=O)NC1CCCCC1 (configuration not stated) -9.59%
CCCC(=O)O[C@]1(C(=O)CO)CC[C@H]2[C@@H]3CCC4=CC(=O)CC[C@]4(C)[C@H]3[C@@H](O)C[C@@]21C -3.71%
Cc1cccc(C(=O)NC(=O)Nc2ccc(-c3cc(C(F)(F)F)nn3-c3ccccc3)cc2)c1 -6.17%
CCn1c(=O)cc(SCC(=O)NCc2ccccc2OC)c2ccccc21 -16%
COc1ccc2cc(C(=O)NCc3ccc4c(c3)CCN4C(=O)c3ccccc3)[nH]c2c1 -10.3%
COc1ccc(C(=O)Nc2ccc(OCc3cc(=O)n4ccsc4n3)cc2)cc1OC -10.7%
Cc1cc(=O)n2nc(N3CCC(C(=O)NCc4ccccc4)CC3)sc2n1 -5.82%
Cc1ccc(NC(=O)Cn2cnc3nc4c(cc3c2=O)CCCC4)cc1Cl -30.4%
Cc1cc(NC(=O)NCc2ccc3c(c2)CCN3C(=O)c2ccccc2)ccc1Br 5.04%
CCOc1ccc(S(=O)(=O)c2cn(Cc3ccccc3)c3ccc(OCC)cc3c2=O)cc1 -5.11%
CC(C)(C)OC(=O)N1CCC(c2c(C(=O)NCc3ccco3)cnn2-c2ccccc2)CC1 15.8%
O=C(C1CCN(S(=O)(=O)c2cccc3nonc23)CC1)N1CCN(c2ccccc2F)CC1 0.426%
Cc1cc(C)c2c(=O)cc(C(=O)Nc3ccc(S(=O)(=O)N(C)Cc4ccccc4)cc3)oc2c1 -7.86%
CCOC(=O)c1sc2ccccc2c1S(=O)(=O)N1CCN(c2cccc(C)c2C)CC1 0.75%
CCOC(=O)c1sc2ccccc2c1S(=O)(=O)N1CCN(c2cccc(OC)c2)CC1 -5.29%
Cc1nn(-c2ccc(F)cc2)c(-n2cccc2)c1C(=O)NCCCN1CCN(c2cccc(Cl)c2)CC1 -19.4%
O=C(NCc1cccnc1)C(=O)NCC(c1cccnc1)N1CCN(c2ccccc2F)CC1 (configuration not stated) -8.67%
O=C(Cn1cc(C(=O)c2ccco2)c2ccccc21)Nc1ccccc1Cl -20.6%
COc1ccc(OC)c(CNC(=O)C2CCN(c3ncnc4c3nc3n4CCCCC3)CC2)c1 -2.73%
O=C(CCn1nc(-c2ccc(Cl)cc2)c2ccccc2c1=O)Nc1ccc(OC(F)(F)F)cc1 -24.5%
O=C(Nc1ccc(F)cc1Cl)C1Cc2ccccc2N1C(=O)c1ccccc1 (configuration not stated) -5.62%
Cc1ccc(Cl)cc1N1CCN(C(=O)C2CCN(S(=O)(=O)c3ccc4c(c3)oc(=O)n4C)CC2)CC1 3.55%
CC(=O)c1cccc(NC(=O)c2nc3ccccc3nc2N2CCCCC2)c1 -19.5%
CCOc1ccc(-c2cn3c(n2)sc2cc(C(=O)NCCc4ccc(OC)c(OC)c4)ccc23)cc1 -2.43%
CCC(=O)N1CCc2cc(S(=O)(=O)CCC(=O)N3CCN(c4ccc(C(C)=O)cc4)CC3)ccc21 -11.7%
Cc1ccc(C2=NN(CC(=O)NCCc3ccc(Cl)cc3)C(=O)CC2)cc1 -7.59%
COC(=O)c1cc(S(=O)(=O)NCC2CCN(Cc3ccccc3F)CC2)c[nH]1 -0.958%
Cc1cc(C)c2c(n1)nn1c(C)c(CCC(=O)NCc3ccc(Cl)cc3)c(C)nc21 1.77%
CN1C(=O)C2(c3ccccc31)N(c1ccc(F)c(Cl)c1)C(=O)CS2(=O)=O (configuration not stated) -30.9%
O=C(Nc1cc(F)ccc1F)c1cc2nc(-c3ccco3)cc(C(F)(F)Cl)n2n1 -28.1%
O=C(CSc1nccn1Cc1ccccc1)Nc1ccc2c(c1)OCO2 -8.29%
CCC(C)(C)NC(=O)Cn1c(=O)ccc2cc(S(=O)(=O)N3CCC(C)CC3)ccc21 -3%
CCOC(=O)N1CCC(NC(=O)c2ccc3c(c2)N(Cc2cc(C)ccc2C)C(=O)c2ccccc2S3=O)CC1 (configuration not stated) -13.9%
COc1ccc(CCNC(=O)CCn2c(=O)c3cccn3c3cccnc32)c(OC)c1OC 8.32%
Cc1cccc(NC(=O)N2CCC(n3c(C)nc4cccnc43)CC2)c1 -17.6%
CN(C(=O)c1cc2c(=O)n3ccccc3nc2n1C)c1ccccc1 -9.13%
CCOc1cc(C(=O)NCCc2csc(-c3ccc(C)cc3)n2)cc(OCC)c1OCC -1.49%
CC(=O)Nc1nnc(SCc2cc(=O)c3cccc(Cl)c3[nH]2)s1 -11.1%
CCOc1ccc(CCNC(=O)Cn2nnc(-c3ccc(C(F)(F)F)cc3)n2)cc1OCC -15%
CCOC(=O)c1c(NC(=O)CSc2nc(-c3ccccc3)cc(C(F)(F)F)n2)sc(C)c1C -14.1%
Cn1cc(CCCC(=O)NCc2ccccc2Cl)c2ccccc21 -3.23%
Cc1ccc(CNc2ccc(-c3nc(-c4ccccn4)no3)cc2[N+](=O)[O-])cc1 -3.05%
O=C(c1ccc([N+](=O)[O-])cc1)N1CCN(c2ccc(Nc3ccccc3)nn2)CC1 -7.35%
CCOc1ccc(CCNC(=O)CN2C(=O)c3cccnc3Oc3ccc(Cl)cc32)cc1 -9.36%
CCOc1ccc(OCC)c(Nc2cc(C)nc3nc(-c4ccco4)nn23)c1 -5.31%
CC(=O)N1c2ccc(S(=O)(=O)N3CCCCCC3)cc2CC1C(=O)NCc1ccccc1F (configuration not stated) -10.8%
CCCCN(CCCC)CCNC(=O)c1cn(C)c2ccc(S(=O)(=O)N3CCCC3)cc2c1=O -0.234%
CCOC(=O)c1c(S(=O)(=O)N2CCC(C(=O)Nc3ccc(OCC)cc3)CC2)c(C)n(C)c1C -13.3%
Cc1c(NC(=O)Nc2ccc(F)c(Cl)c2)c(=O)n(-c2ccccc2)n1C -5.33%
CCc1cnc2c(c1SCC(=O)N1CCC(C)CC1)c(=O)n(C)c(=O)n2C -5.39%
Cc1nn(CCC(=O)N2CCN(c3ccccc3)CC2)c(C)c1S(=O)(=O)N1CCCC1 -11%
COc1ccc(OC)c(NC(=O)N2c3ccccc3Sc3ccccc32)c1 -1.88%
Cc1ccc(OCc2nc(-c3ccc(C(=O)N4CCN(c5ccccc5)CC4)cc3)oc2C)cc1 -19.7%
O=C(NCc1ccccc1Cl)c1ccc(Nc2nc3ccccc3n3nnnc23)cc1 -20.2%
CCc1ccc(C2c3c(-c4cc(C)ccc4O)n[nH]c3C(=O)N2Cc2cccnc2)cc1 (configuration not stated) -12.4%
CSc1ccc(CNC(=O)c2cc3cc(S(=O)(=O)N4CCCCC4)ccc3n2C)cc1 -5.48%
CCCCC(=O)OC1=C(C(=O)c2ccccc2)N(CC)S(=O)(=O)c2ccccc21 1.92%
O=C(Nc1cccc(-c2nc3ccccc3o2)c1)c1cccc(Br)c1 -10.7%
CCOC(=O)c1c(Nc2cc(C)cc(C)c2)nnc(-c2ccccc2)c1-c1ccccc1 7.9%
C[C@H](N)C(=O)N[C@@H](C)C(=O)NC1[C@H]2CN(c3nc4c(cc3F)c(=O)c(C(=O)O)cn4-c3ccc(F)cc3F)C[C@@H]12 (some centres not stated) -11.8%
COc1ccc(Cn2ccc3nc(C)c(C(=O)Nc4ccc(OC(F)(F)F)cc4)cc3c2=O)cc1 -15.2%
O=C(NCC(c1cccnc1)N1CCc2ccccc2C1)C(=O)Nc1ccccc1 (configuration not stated) -21%
COc1ccccc1CNS(=O)(=O)c1ccc(F)c(C(=O)Nc2cc(Cl)ccc2OC)c1 -14.8%
COc1ccccc1N1CCN(S(=O)(=O)c2c(C)nc3sc(C)c(C)n3c2=O)CC1 -11.3%
CC1CCN(S(=O)(=O)c2ccc3nc(Nc4ccc(C#N)cc4)ccc3c2)CC1 -8.02%
COc1cccc(CNC(=O)C2CCN(S(=O)(=O)N3CCC(C)CC3)CC2)c1 -15.1%
COc1cccc2c1Oc1ncccc1N(C(=O)Nc1cccc(Cl)c1)C2 -10.4%
